About 2,500 (3.4%) of roughly 73,000 compounds were called active. The inconclusive results got no clear call from the source; some entries with a clear call stand among them for comparison. The call rests on the fitted dose curve; in most records, active means well fitted inhibition curve with a large enough effect; inconclusive means small, poorly fitted or top-dose-only effect; inactive means no such curve, though single readings can be large or run the other way. Where the call is inconclusive, the potency comes from a doubtful curve fit.
Target: 3-hydroxyacyl-CoA dehydrogenase type-2 (Homo sapiens) (UniProt Q99714)
Sequence of UniProt Q99714 (Q99714 whole entry, looked up): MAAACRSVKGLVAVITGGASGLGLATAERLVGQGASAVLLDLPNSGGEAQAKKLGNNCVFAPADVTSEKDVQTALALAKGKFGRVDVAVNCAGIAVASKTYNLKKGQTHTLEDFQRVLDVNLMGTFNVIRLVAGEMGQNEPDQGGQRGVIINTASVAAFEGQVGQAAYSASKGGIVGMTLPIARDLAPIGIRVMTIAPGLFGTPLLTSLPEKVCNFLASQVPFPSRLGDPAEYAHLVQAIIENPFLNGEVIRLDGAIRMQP
Sequence of UniProt Q99714 (Q99714 whole entry, looked up): as above
Experiment: qHTS Assay for Inhibitors of HADH2 (Hydroxyacyl-Coenzyme A Dehydrogenase, Type II); further: nearly all actives have a fitted effect of over 60% in size
Conditions: recombinant HADH2, NADH fluorescence, beta-hydroxybutyryl-CoA; activity change, negative = inhibition: at 57.1 µM (top of the series)
In short: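 Activity measured as NADH fluorescence gain (360/450 nm), taken as the change between first and last reads of a 4-min kinetic run. Conditions: pH 9.0 Tris buffer, 20 nM E. coli-expressed His-tagged enzyme, 1 mM NAD+, 90 uM beta-hydroxybutyryl-CoA; 15-min compound preincubation.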
On the % scale 0 is the no-effect control and ±100 the full control effect; potency means the concentration at half of the fitted maximal effect; tags describe the fitted curve by direction and shape.

Row | Compound | Potency | activity change, negative = inhibition
1 | Cc1ccc(NCc2nnc(SCC(=O)Nc3ncc(C)s3)n2Cc2ccco2)c(C)c1 | inconclusive: 39.8 µM [inhibitor, single point] | –
2 | CC(C)C1N=C2c3ccccc3N=C(SCC#N)N2C1=O (stereo not drawn) | active: 25.1 µM | –
3 | N#Cc1ccc(CN2CC3(CCN(C(=O)c4ccncc4)CC3)C2)cc1 | – | inactive: 2.01%
4 | CNc1nn(-c2cccc(Cl)c2)nc1N | inconclusive: 3.98 µM [inhibitor, full curve, poor fit] | –
5 | Cc1nc(-c2ccc3c(c2)OCO3)cs1 | inconclusive: 39.8 µM [inhibitor, single point] | –
6 | COc1ccc(C2OC(=O)CC2C(=O)NC(C)C)cc1 (stereo not drawn) | inconclusive: 39.8 µM [inhibitor, single point] | –
7 | COCC(=O)Nc1nnc(CCc2ccccc2)s1 | – | inactive: -7.51%
8 | NC([N-]/N=C/c1ccccn1)=[S]=[Fe].O=S(=O)(O)O | inconclusive: 3.98 µM [inhibitor, partial curve] | –
9 | CCOC(=O)CCS(=O)(=O)c1nc(-c2ccccc2)cc(C(F)(F)F)n1 | inconclusive: 15.8 µM [inhibitor, partial curve] | –
10 | OCCN(Cc1ccccc1)CC1CC=CCC1 (stereo not drawn) | inconclusive: 6.31 µM [inhibitor, single point] | –
11 | COCCCN=C(c1ccco1)n1c(=S)nc(-c2ccco2)n(CCCOC)c1=S | active: 2.51 µM | –
12 | COCCn1c(N2CCN(c3ccc(OC)cc3)CC2)nc2c1c(=O)n(C)c(=O)n2C | inconclusive: 0.794 µM [inhibitor, single point] | –
13 | CCOC(=O)c1c(C)nc2c(C#N)cnn2c1C | inconclusive: 25.1 µM [inhibitor, single point] | –
14 | Cc1cc(C)n(CCc2nc(-c3cc4ccccc4o3)cs2)n1 | inconclusive: 39.8 µM [inhibitor, single point] | –
15 | COc1ccccc1CNc1cc(-c2cccnc2)ncn1 | inconclusive: 31.6 µM [inhibitor, single point] | –
16 | Cc1cc(=O)[nH]c(SCC(=O)NCc2ccco2)n1 | – | inactive: -25.6%
17 | Cc1cccc(CNc2ccnc(-c3cccc(C#N)c3)n2)c1 | inconclusive: 39.8 µM [inhibitor, single point] | –
18 | Nc1nc(-c2ccco2)c(-c2ccco2)s1 | active: 12.6 µM | –
19 | Cc1cc(Nc2ncc(Cl)cc2Cl)n[nH]1 | inconclusive: 5.01 µM [inhibitor, single point] | –
20 | CCOC(=O)c1sc(=NC(=O)c2ccc(S(=O)(=O)N3CC(C)OC(C)C3)cc2)n(C)c1C (stereo not drawn) | active: 1 µM | –
21 | Cc1cccc(NC(=O)c2cnc3sccn3c2=O)c1 | inconclusive: 25.1 µM [inhibitor, single point] | –
22 | N#Cc1cccc(NC(=O)N2CC[C@@]3(CCCN(S(=O)(=O)c4ccccc4)C3)C2)c1 | – | inactive: -16.8%
23 | COc1ccccc1CC(=O)Nc1ccc(-c2nnc(-c3ccco3)o2)cc1 | inconclusive: 31.6 µM [inhibitor, single point] | –
24 | CCOC(=O)C1=C(C)NC(=O)NC1c1ccc(OC(C)C(=O)O)c(OC)c1 (stereo not drawn) | active: 0.199 µM | –
25 | Cc1ccc(-c2[nH]nc3c2C(c2ccoc2)C(C#N)=C(N)O3)cc1C (stereo not drawn) | inconclusive: 20 µM [inhibitor, partial curve] | –
26 | O=C1C(Cl)=C(N2CCCCC2)C(=O)N1c1ccccc1Cl | inconclusive: 20 µM [inhibitor, partial curve] | –

Row | Compound | Potency | activity change, negative = inhibition
27 | CCCCn1c(N)c(N(CCC(C)C)C(=O)CSc2nnc(C)s2)c(=O)[nH]c1=O | – | inactive: 29.3%
28 | COc1cc2cc(CN(CCCO)S(=O)(=O)c3ccccc3Cl)c(=O)[nH]c2cc1OC | – | inactive: 33.7%
29 | Cn1ccnc1-c1nc2ccccc2[nH]c1=O | inconclusive: 39.8 µM [inhibitor, single point] | –
30 | Cc1ccc(-c2nc3s/c(=C\c4ccco4)c(=O)n3n2)cc1 | inconclusive: 39.8 µM [inhibitor, single point] | –
31 | CCCCNS(=O)(=O)c1ccc(OC)c2ncccc12 | inconclusive: 31.6 µM [inhibitor, single point] | –
32 | CCOC(=O)Cc1nnc(NC(=O)CSc2nnc3c4ccccc4n(C)c3n2)s1 | inconclusive: 1.26 µM [inhibitor, single point] | –
33 | Cc1ccc(-n2sc3ccccc3c2=O)cc1S(=O)(=O)N1CCCCC1 | active: 0.316 µM | –
34 | c1nc(N2CCNCC2)c2cc(-c3ccc4c(c3)OCO4)ccc2n1 | – | inactive: 5.95%
35 | CCC1=C/C(=C/N(C)c2ccccc2)C(=O)S1 | active: 3.98 µM | –
36 | O=c1cc(O)n(-c2ccccc2F)c(=S)[nH]1 | inconclusive: 39.8 µM [inhibitor, single point] | –
37 | Cc1cc(C(=O)OCCO)c(C#N)c(N)n1 | active: 31.6 µM | –
38 | Cc1ccccc1-n1nc(C)c2cc(C(=O)NCc3cccnc3)sc21 | – | inactive: 2.22%
39 | CN(C)Cc1ccccc1-c1cncnc1Nc1ccccc1 | inconclusive: 39.8 µM [inhibitor, single point] | –
40 | Nc1ncnc2c1c(-c1ccc(Oc3ccccc3)cc1)cn2C1CCCC1 | inconclusive: 39.8 µM [inhibitor, single point] | –
41 | COc1ccccc1Nc1nc(-c2cccs2)cs1 | active: 3.16 µM | –
42 | CCOC(=O)c1oc2c(O)c(O)ccc2c(=O)c1-c1nncn1-c1ccccc1 | inconclusive: 31.6 µM [inhibitor, single point] | –
43 | CC(C)c1ccc(C2CC(=O)N3CN(C)CSC3=C2C#N)cc1 (stereo not drawn) | active: 2 µM | –
44 | O=Cc1ccc(Cl)cc1 | inconclusive: 39.8 µM [inhibitor, single point] | –
45 | CCc1nnc(NC=C2C(=O)OC(C)(C)OC2=O)s1 | – | inactive: -4.35%
46 | O=C1C2CC=C(Cl)CC2C(=O)N1CN(Cc1ccco1)CN1C(=O)C2CC=C(Cl)CC2C1=O (stereo not drawn) | inconclusive: 3.98 µM [inhibitor, single point] | –
47 | Cc1nnc(NC2CCCCC2)[nH]c1=O | – | inactive: 3.83%
48 | COc1cc(NC(=O)c2cccs2)ccc1NC(=O)c1ccco1 | inconclusive: 39.8 µM [inhibitor, single point] | –
49 | COc1cc(SC)ccc1C(=O)Nc1ccon1 | inconclusive: 31.6 µM [inhibitor, single point] | –
50 | O=c1c2[nH]c3ccc(F)cc3c2ncn1C1CCCCC1 | – | inactive: -10.7%
51 | COc1cc(S(=O)(=O)N2CCOCC2)ccc1NC(=O)CSc1nnc(N)s1 | inconclusive: 31.6 µM [inhibitor, single point] | –
52 | CC(C)CCn1c(CN2CCN(Cc3ccccc3)CC2)nc2c1c(=O)[nH]c(=O)n2C | – | inactive: -1%

Row | Compound | Potency | activity change, negative = inhibition
53 | O=C1/C(=C/Nc2ccc3c(c2)OCO3)CCc2ccccc21 | inconclusive: 31.6 µM [inhibitor, single point] | –
54 | CN1C(=S)SC(C)(NO)C1(C)C (stereo not drawn) | inconclusive: 25.1 µM [inhibitor, single point] | –
55 | CCN(CCCNC(=O)C1CCN(S(=O)(=O)c2cnc[nH]2)CC1)c1cccc(C)c1 | – | inactive: 7.26%
56 | N#Cc1cc2c(nc1SCC(=O)Nc1sc3c(c1C#N)CCC3)CCCCC2 | inconclusive: 1 µM [inhibitor, single point] | –
57 | O=C(CSc1nnc(Cc2cccs2)n1C1CCCCC1)N1CCCc2ccccc21 | inconclusive: 10 µM [inhibitor, partial curve] | –
58 | CC[n+]1ccc(C)c2cc(S(=O)C(F)(F)F)ccc21 (stereo not drawn) | inconclusive: 31.6 µM [inhibitor, single point] | –
59 | CCCCn1c(-c2ccsc2)nc2c1c(=O)[nH]c(=O)n2CCC | inconclusive: 31.6 µM [inhibitor, single point] | –
60 | Nn1c(-c2ccco2)n[nH]c1=S | active: 25.1 µM | –
61 | Cn1c(C(=O)NCc2ccc3c(c2)OCO3)cc2sccc21 | – | inactive: 4.33%
62 | O=C(Nc1ccc(CN2CCOCC2)cc1)c1cccs1 | – | inactive: 4.35%
63 | CC(C)c1cccc2nc3c(c([Si](C)(C)C)c12)Cn1c-3cccc1=O | inconclusive: 31.6 µM [inhibitor, single point] | –
64 | CC(C)n1c(=S)[nH]c2c1c(=O)[nH]c(=O)n2C | active: 0.631 µM | –
65 | Cc1ccc(C(C(=O)NC2CCCCC2)N(Cc2cccnc2)C(=O)C2COc3ccccc3O2)o1 (stereo not drawn) | – | inactive: 1.55%
66 | Cc1[nH]nc2c1C(c1cccc(O)c1)C1=C(CC(C)(C)CC1=O)N2 (stereo not drawn) | inconclusive: 31.6 µM [inhibitor, single point] | –
67 | CCOC(=O)c1ccc(Oc2nc(SC)nc(N(C)C)n2)cc1 | – | inactive: -0.455% [at 11.4 µM]
68 | COc1ccc(CNc2nc(-c3ccc(N(C)C)cc3)nc3ccccc23)c(OC)c1 | active: 3.16 µM | –
69 | CCC(C)n1c(SCC(=O)NC(=O)Nc2ccc3c(c2)OCCO3)nc2ccccc2c1=O (stereo not drawn) | – | inactive: 12.6%
70 | COc1ccc(-c2nc(C#N)c(N3CCOCC3)o2)cc1OC | active: 31.6 µM | –
71 | COCCNC(=O)CSc1nc(-c2ccc(OC)c(OC)c2)cc(C(F)(F)F)n1 | – | inactive: -12.7%
72 | CCOC(=O)CS(=O)(=O)c1nc(-c2ccc(F)cc2)cc(C(F)(F)F)n1 | active: 20 µM | –
73 | CCOC(=O)C1Cn2c(nc3c(c2=O)C2(CCCC2)Cc2ccccc2-3)S1 (stereo not drawn) | inconclusive: 5.01 µM [inhibitor, single point] | –
74 | O=c1[nH]c(-c2ccccc2)c(-c2ccccc2)[nH]1 | active: 3.16 µM | –
75 | CC(=O)OC1(C(F)(F)F)Oc2ccccc2NC1=O (stereo not drawn) | inconclusive: 15.8 µM [inhibitor, single point] | –
76 | CCCSC1=C(C#N)C(c2ccc(Cl)cc2Cl)CC(=O)N1 (stereo not drawn) | inconclusive: 3.98 µM [inhibitor, single point] | –
77 | O=C(CSC1=NCCN1)C1COc2ccccc2O1 (stereo not drawn) | inconclusive: 1.58 µM [inhibitor, partial curve] | –
78 | COc1ncc2nc(-c3ccc(Cl)cc3)c(=O)n(CCC#N)c2n1 | – | inactive: 5.63%

From PubChem BioAssay AID886 (National Center for Advancing Translational Sciences (NCATS), 2007)
